Results: paper PMC12661054, “The CIP2A-TOPBP1 axis facilitates mitotic DNA repair via MiDAS and MMEJ” (Nature Communications, 2025)

Assays:
RPE1 p53-/- FRT/TR cells = test: Micronuclei formation, RPE1 p53-/- FRT/TR cells; format: cell-based, human; conditions: 5 µM ART558, 18 h, with 400 nM aphidicolin; SLX4 T1260A Cl.1 and Cl.2; three independent experiments
Description: For detection of EdU incorporation in mitosis and the analysis of recruitment of TOPBP1, CIP2A, MUS81, ERCC1, TOPBP1-mAID-Clover, eGFP tagged SLX4 and eGFP tagged Polθ in RPE1 p53^-/- FRT/TR and DLD1 BRCA2^-/-cells, respectively, cells were grown on 13 mm 1.5 thickness coverslips and treated as described. Subsequently cells were simultaneously fixed and permeabilised in PTEMF buffer (20 mM PIPES pH 6.8, 10 mM EGTA, 0.2% Triton X-100, 1 mM MgCl2 and 4% formaldehyde) for 10 minutes at room temperature. For detection of micronuclei, cells were fixed in 250 mM HEPES pH 7.5, 0.1% Triton X-100, 4% PFA in PBS for 20 minutes at 4 °C.
Coverslips were then incubated for 5 min in 1x PBS with three buffer changes followed by incubation with 0.5% Triton X-100/ PBS for 10 min at room temperature. Coverslips were then incubated for 5 minutes in 1x PBS with three buffer changes. […]
(§1) Quantification was carried out using FIJI (ImageJ, RRID:SCR_003070) software, CellProfiler (Broad Institute), Harmony (Revvity) or using Aivia (Leica Microsystems). Images of mitotic cells were analysed in 3D with maximum Z projections used for representative images in the manuscript to assist with visualisation.For interphase cells 2D images were analysed.

[1] = tested on: RPE1 p53-/- FRT/TR SLX4 T1260A cells; test: γH2AX and 53BP1 foci, RPE1 p53-/- FRT/TR SLX4 T1260A cells; format: cell-based, human; conditions: Polθ inhibition in SLX4 Thr1260Ala mutant cells
Description: Alternatively, for the detection of colocalisation of γH2AX, MUS81/SLX4/CIP2A, FANCD2/ CIP2A, detection of recruitment of γH2AX, 53BP1, MDC1, SLX4, in interphase and mitosis in either DLD1, RPE1 p53^-/- FRT/TR, RPE1 p53^-/- PAC^-/- WT or BRCA1^-/- or the detection of recruitment of SLX4 or MUS81 in RPE1 p53^-/- PAC^-/- BRCA1^-/- the following procedure was used. Cells were fixed in 2% BSA/PBS for 15 min at room temperature, followed by 3 × 5 min washes in 1xPBS. Coverslips were then incubated in 0.5% Triton-X/PBS for 10 min at room temperature, followed by a further 3 × 5 min 1xPBS washes. Coverslips were then incubated in blocking buffer (2% BSA, 0.05% Tween-20) for 1 h at room temperature, followed by incubation in respective primary antibodies overnight at 4 °C. Coverslips were then washed 3x for 5 min in 1x PBS followed by incubation for 1 h at room temperature in blocking buffer containing secondary antibodies. […]
as §1

[2] = tested on: RPE1 p53-/- FRT/TR SLX4 T1260A cells; test: Proliferation (Incucyte), RPE1 p53-/- FRT/TR SLX4 T1260A cells

## Cc1cccc(N(C)C(=O)[C@@H]2[C@H](O)CCN2c2nc(C)cc(C(F)(F)F)c2C#N)c1 [Polθi]
RPE1 p53-/- FRT/TR cells
  micronuclei formation, SLX4 Thr1260Ala cells: an even greater increase in micronuclei formation, indicating an additive effect
[1]
  γH2AX and 53BP1 foci formation: further exacerbated
[2]; 5 µM ART558 with 400 nM aphidicolin, confluence normalised to day 0, three independent experiments
  proliferation, SLX4 Thr1260Ala knock-in cells: proliferation defects that were exacerbated
[2]; Polθ inhibition, siBRCA1 or siBRCA2
  proliferation, SLX4 Thr1260Ala cells with knockdown of BRCA1 or BRCA2: further exacerbated by Polθ inhibition
